Assay results taken from US11713338B2, “Cyclic peptides multimers targeting α-4-β-7 integrin” (priority 2016, dated 2023).
Some results were stated once for a whole list of compounds, not compound by compound.

Biological target: T1, VCAM-1 binding to α4β7-negative Th memory cells (Homo sapiens, UniProt P05556+P13612)
T1 construct: endogenous in cells
Assay: VCAM-1 competition / receptor occupancy assay in human whole blood, α4β7-negative Th memory cells
Format: cell-based
Details: whole blood from a single donor, FIG. 11, up to 4000 nM
Procedure: Analyte Competition Assay in CD4+ Integrin α4+β7-Lo Memory T Cells
Receptor occupancy in primary cells was determined by measuring the amount of biotinylated human recombinant MAdCAM-1-FC or human recombinant VCAM-1-Fc bound to selected cell populations using flow cytometry. Human recombinant MAdCAM-1-FC or human recombinant VCAM-1-FC (R&D systems) were biotinylated using commercially available reagents and protocol (Pierce).
Whole blood was collected from human donors in sodium heparin tubes. A volume of 100 microL of blood was incubated with compound and 4 mM MnCL2 for 1 hour at room temperature. Cells were washed twice with 1 mL of 1X DPBS calcium magnesium free (CMF) (ThermoFisher Scientific) and resuspended in 100 microL of DPBS CMF.
Biotinylated human recombinant MAdCAM-1-Fc or VCAM-1-Fc were added at saturating concentration and incubated at room temperature for 1 hour. A volume of 2 mL of 1X BD FACS Lyse (BD Biosciences) was then added and the mixture was incubated for 8-12 minutes at room temperature in the dark to lyse red blood cells. […] Cell population were determined using the following markers, CD45+, CD3+, CD4+, CD45RO+, CD49d+, integrin b7, biotinylated ligands. […]
Receptor occupancy was calculated with the following equation: 100−((% ligand-positive cells with compound/% ligand-positive cells DMSO)*100) In Vivo T Lymphocyte Trafficking Analysis in Mouse Model of Colitis

T1 sequence (P13612 34-1032): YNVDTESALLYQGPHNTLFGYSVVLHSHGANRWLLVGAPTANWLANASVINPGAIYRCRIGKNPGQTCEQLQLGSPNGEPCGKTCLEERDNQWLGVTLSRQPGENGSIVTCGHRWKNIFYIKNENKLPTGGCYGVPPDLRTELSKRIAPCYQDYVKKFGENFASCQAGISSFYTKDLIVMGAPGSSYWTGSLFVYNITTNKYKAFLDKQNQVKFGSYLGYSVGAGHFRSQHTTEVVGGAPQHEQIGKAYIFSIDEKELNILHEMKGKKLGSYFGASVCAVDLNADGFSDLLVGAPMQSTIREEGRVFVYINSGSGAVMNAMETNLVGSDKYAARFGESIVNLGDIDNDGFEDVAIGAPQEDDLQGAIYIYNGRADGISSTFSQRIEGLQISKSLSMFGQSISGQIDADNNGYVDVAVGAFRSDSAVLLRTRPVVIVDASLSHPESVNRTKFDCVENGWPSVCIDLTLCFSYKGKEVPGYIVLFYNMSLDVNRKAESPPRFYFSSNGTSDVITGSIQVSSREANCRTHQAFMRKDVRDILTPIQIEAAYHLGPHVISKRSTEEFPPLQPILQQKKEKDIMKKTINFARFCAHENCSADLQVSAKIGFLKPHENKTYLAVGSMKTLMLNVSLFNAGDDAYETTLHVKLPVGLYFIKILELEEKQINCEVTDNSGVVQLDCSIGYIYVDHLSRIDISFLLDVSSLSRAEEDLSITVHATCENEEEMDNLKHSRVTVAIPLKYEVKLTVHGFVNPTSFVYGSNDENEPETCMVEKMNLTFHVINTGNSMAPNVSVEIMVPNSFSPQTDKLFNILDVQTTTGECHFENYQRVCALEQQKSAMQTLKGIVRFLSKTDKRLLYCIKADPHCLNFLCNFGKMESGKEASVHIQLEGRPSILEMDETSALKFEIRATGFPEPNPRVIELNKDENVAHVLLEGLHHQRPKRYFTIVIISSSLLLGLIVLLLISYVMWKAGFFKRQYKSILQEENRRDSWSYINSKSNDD
T1 sequence (P05556 21-798): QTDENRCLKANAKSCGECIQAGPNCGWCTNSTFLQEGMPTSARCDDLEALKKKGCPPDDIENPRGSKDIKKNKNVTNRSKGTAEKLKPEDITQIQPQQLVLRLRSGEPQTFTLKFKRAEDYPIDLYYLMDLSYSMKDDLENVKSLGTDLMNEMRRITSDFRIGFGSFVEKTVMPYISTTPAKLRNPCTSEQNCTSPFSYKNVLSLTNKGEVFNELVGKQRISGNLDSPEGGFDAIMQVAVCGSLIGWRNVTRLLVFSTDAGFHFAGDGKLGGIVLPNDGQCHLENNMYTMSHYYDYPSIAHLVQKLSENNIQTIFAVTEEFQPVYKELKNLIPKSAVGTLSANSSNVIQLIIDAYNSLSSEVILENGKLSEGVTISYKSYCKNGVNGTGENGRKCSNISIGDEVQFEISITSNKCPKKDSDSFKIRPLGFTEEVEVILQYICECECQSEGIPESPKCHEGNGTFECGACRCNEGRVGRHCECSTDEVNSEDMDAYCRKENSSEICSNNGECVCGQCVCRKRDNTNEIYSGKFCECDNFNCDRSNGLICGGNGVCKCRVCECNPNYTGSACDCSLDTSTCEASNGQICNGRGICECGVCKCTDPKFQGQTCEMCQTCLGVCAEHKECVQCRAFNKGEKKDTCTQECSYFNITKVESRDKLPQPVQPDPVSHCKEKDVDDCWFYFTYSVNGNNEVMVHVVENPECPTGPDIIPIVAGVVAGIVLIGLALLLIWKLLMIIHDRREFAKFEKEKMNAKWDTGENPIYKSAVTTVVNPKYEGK

SMILES | IC50 [µM]
CC(C)C[C@@H]1NC(=O)c2ccc(-c3ccc(N4CCN(CCC(=O)N5CCN(c6ccc(-c7ccc8cc7CNC(=O)[C@@H]7CCCN7[C@H](C(=O)NC(C)(C)C)[C@H](C)NC(=O)[C@H]([C@@H](C)O)NC(=O)[C@H](CC(=O)O)NC(=O)[C@H](CC(C)C)NC8=O)cc6)CC5)CC4)cc3)c(c2)CNC(=O)[C@@H]2CCCN2[C@H](C(=O)NC(C)(C)C)[C@H](C)NC(=O)[C@H]([C@@H](C)O)NC(=O)[C@H](CC(=O)O)NC1=O [Compound 482] | ≥ 0.6
CC(C)C[C@@H]1NC(=O)c2ccc(-c3ccc(N4CCN(C(=O)c5ccccc5-c5ccccc5C(=O)N5CCN(c6ccc(-c7ccc8cc7CNC(=O)[C@@H]7CCCN7[C@H](C(=O)NC(C)(C)C)[C@H](C)NC(=O)[C@H]([C@@H](C)O)NC(=O)[C@H](CC(=O)O)NC(=O)[C@H](CC(C)C)NC8=O)cc6)CC5)CC4)cc3)c(c2)CNC(=O)[C@@H]2CCCN2[C@H](C(=O)NC(C)(C)C)[C@H](C)NC(=O)[C@H]([C@@H](C)O)NC(=O)[C@H](CC(=O)O)NC1=O [Compound 517] | ≥ 0.6
